The record followed here is US8592383B2, “Cycloalkyl-fused tetrahydroquinolines as CRTH2 receptor modulators” (Merck Sharp & Dohme Corp., priority 2011, dated 2013).

This assay has as its target T1, hCRTH2 (Homo sapiens, UniProt Q9Y5Y4).
T1 sequence (Q9Y5Y4 1-395): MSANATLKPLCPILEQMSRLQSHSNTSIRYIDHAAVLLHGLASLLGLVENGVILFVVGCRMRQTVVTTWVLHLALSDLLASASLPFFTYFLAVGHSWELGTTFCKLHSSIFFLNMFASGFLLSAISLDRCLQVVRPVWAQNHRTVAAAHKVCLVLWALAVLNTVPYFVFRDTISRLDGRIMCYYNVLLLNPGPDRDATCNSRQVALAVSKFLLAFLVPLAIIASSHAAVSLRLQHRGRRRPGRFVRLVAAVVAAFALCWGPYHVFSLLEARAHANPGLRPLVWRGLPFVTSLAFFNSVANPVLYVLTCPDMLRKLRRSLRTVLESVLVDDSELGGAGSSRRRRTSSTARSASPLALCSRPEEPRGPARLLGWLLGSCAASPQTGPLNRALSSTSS
The assay can be described thus: biochemical. The settings on record: Ki (nM), Table A; Radioligand Binding Assay A, [3H]PGD2, HEK-hCRTH2 membranes.
The Ki is a measure of affinity in units of concentration, obtained from inhibition or displacement. Higher therefore signals lower affinity. `O=C(O)CCC(=O)N(C1CC1)[C@@H]1c2ccccc2N(C(=O)c2ccc(-c3ncccn3)cc2)[C@@H]2CCC[C@@H]21` (racemic) [compound 18, 4-[Cyclopropyl[cis,cis-2,3,3a,4,9,9a-hexahydro-4-[4-(2-pyrimidinyl)benzoyl]-1H-cyclopenta[b]quinolin-9-yl]amino]-4-oxobutanoic acid]: the Ki was in the range of 20.1 to 200 nM.

In turn, `CC1(C)C[C@@H]2[C@H](C1)N(C(=O)OCc1ccccc1)c1ccccc1[C@@H]2N(C(=O)CCC(=O)O)C1CC1` (racemic) [compound 19, 4-(Phenylmethyl)cis,cis-9-[(3-carboxy-1-oxopropyl)cyclopropylamino]-1,2,3,3a,9,9a-hexahydro-2,2-dimethyl-4H-cyclopenta[b]quinoline-4-carboxylate] showed a Ki of 201 to 7500 nM.

As for `O=C(O)COC(=O)N(C1CC1)[C@@H]1c2ccccc2N(c2nnc(-c3cccc(OC(F)(F)F)c3)o2)[C@@H]2CCC[C@@H]21` (racemic) [compound 38, [[[Cyclopropyl[cis,cis-2,3,3a,4,9,9a-hexahydro-4-[5-[3-(trifluoromethoxy)phenyl]-1,3,4-oxadiazol-2-yl]-1H-cyclopenta[b]quinolin-9-yl]amino]carbonyl]oxy]acetic acid], the Ki lay in the range of 20.1 to 200 nM.

In the case of `CCN(c1nc(C(=O)O)co1)[C@@H]1c2ccccc2N(C(=O)c2ccc(OC(F)(F)F)cc2)[C@@H]2CCC[C@H]12` (racemic) [compound 40, 2-[Ethyl[cis,cis-2,3,3a,4,9,9a-hexahydro-4-[4-(trifluoromethoxy)benzoyl]-1H-cyclopenta[b]quinolin-9-yl]amino]-4-oxazolecarboxylic acid], the Ki fell in the range of 20.1 to 200 nM.

As to `O=C(O)Cc1nnc(N(C2CC2)[C@@H]2c3ccccc3N(C(=O)c3ccc(OC(F)(F)F)cc3)[C@@H]3CCC[C@@H]32)o1` (racemic) [compound 41, 5-[Cyclopropyl[cis,cis-2,3,3a,4,9,9a-hexahydro-4-[4-(trifluoromethoxy)benzoyl]-1H-cyclopenta[b]quinolin-9-yl]amino]-1,3,4-oxadiazole-2-acetic acid], the Ki lay in the range of 201 to 7500 nM.

For the molecule `O=C(c1ccc(OC(F)(F)F)cc1)N1c2ccccc2[C@@H](N(C(=O)CCc2nnn[nH]2)C2CC2)[C@H]2CCC[C@H]21` (racemic) [compound 42, N-Cyclopropyl-N-[cis,cis-2,3,3a,4,9,9a-hexahydro-4-[4-(trifluoromethoxy)benzoyl]-1H-cyclopenta[b]quinolin-9-yl]-2H-tetrazole-5-propanamide], the Ki lay within 20.1 to 200 nM.

With `O=C(O)CCCN(C1CC1)[C@@H]1c2ccccc2N(C(=O)c2ccc(OC(F)(F)F)cc2)[C@@H]2CCC[C@@H]21` (racemic) [compound 44, 4-[Cyclopropyl[cis,cis-2,3,3a,4,9,9a-hexahydro-4-[4-(trifluoromethoxy)benzoyl]-1H-cyclopenta[b]quinolin-9-yl]amino]butanoic acid], the Ki lay within 1 to 5 nM.

`O=C(O)CCC(=O)N[C@@H]1c2ccccc2N(C(=O)c2ccc(OC(F)(F)F)cc2)[C@@H]2CCC[C@H]12` (racemic) [compound 45, 4-[[cis,cis-2,3,3a,4,9,9a-Hexahydro-4-[4-(trifluoromethoxy)benzoyl]-1H-cyclopenta[b]quinolin-9-yl]amino]-4-oxobutanoic acid] gave a Ki of 20.1 to 200 nM.

Turning to `CC(=O)N(CCCC(=O)O)[C@@H]1c2ccccc2N(C(=O)c2ccc(OC(F)(F)F)cc2)[C@@H]2CCC[C@H]12` (racemic) [compound 47, 4-[Acetyl[cis,cis-2,3,3a,4,9,9a-hexahydro-4-[4-(trifluoromethoxy)benzoyl]-1H-cyclopenta[b]quinolin-9-yl]amino]butanoic acid], the Ki lay within 201 to 7500 nM.

On to `CCN(C(=O)CCC(=O)O)C1c2ccccc2N(C(=O)OC(C)c2ccccc2)C2CCCC12` (racemic) [compound 74, 4-(1-phenylethyl) cis, cis-[(3-carboxy-1-oxopropyl)ethylamino]-1,2,3,3a,9,9a-hexahydro-4H-cyclopenta[b]quinoline-4-carboxylatc], for which the Ki fell in the range of 20.1 to 200 nM.

Consider `CCN(C(=O)CCC(=O)O)C1c2ccccc2N(C(=O)C2CC2c2ccccc2)C2CCC12` (racemic) [compound 98, 4-(ethyl(cis, cis-3-(2-phenylcyclopropanecarbonyl)-1,2,2a,3,8,8a-hexahydrocyclobuta[b]quinolin-8-yl)amino)-4-oxobutanoic acid], for which the Ki was 5.1 to 20 nM.

The molecule `CC(CNC1c2ccccc2N(C(=O)OCc2ccccc2)C2CCCC12)C(=O)O` (racemic) [compound 103, 4-(phenylmethyl) cis, cis-[(2(RS)-carboxypropyl)amino]-1,2,3,3a,9,9a-hexahydro-4H-cyclopenta[b]quinoline-4-carboxylate] returned a Ki of 201 to 7500 nM.

`CCN(C(=O)C[C@@H](C)C(=O)O)C1c2ccccc2N(C(=O)OCc2ccccc2)C2CCCC12` (mixture of isomers) [compound 105, 4-(phenylmethyl) cis,cis-9-[(3(R)-carboxy-1-oxobutyl)ethylamino]-1,2,3,3a,9,9a-hexahydro-4H-cyclopenta[b]quinoline-4-carboxylate]: the Ki lay in the range of 201 to 7500 nM.

`O=C(O)CCCN(CC1CCC1)C1c2ccccc2N(C(=O)c2ccc(OC(F)(F)F)cc2)C2CCCC12` (racemic) [compound 122, 4-[(cyclobutylmethyl)[cis,cis-2,3,3a,4,9,9a-hexahydro-4-[4-(trifluoromethoxy)benzoyl]-1H-cyclopenta[b]quinolin-9-yl]amino]butanoic acid] displayed a Ki of 20.1 to 200 nM.

With `O=C(O)CCCN(CC1CCCC1)C1c2ccccc2N(C(=O)c2ccc(OC(F)(F)F)cc2)C2CCCC12` (racemic) [compound 123, 4-[(cyclopentylmethyl)[cis-2,3,3a,4,9,9a-hexahydro-4-[4-(trifluoromethoxy)benzoyl]-1H-cyclopenta[b]quinolin-9-yl]amino]butanoic acid], the Ki was 20.1 to 200 nM.

`O=C(O)CCCN(CCc1ccccc1)C1c2ccccc2N(C(=O)c2ccc(OC(F)(F)F)cc2)C2CCCC12` (racemic) [compound 126, 4-[[cis,cis-2,3,3a,4,9,9a-hexahydro-4-[4-(trifluoromethoxy)benzoyl]-1H-cyclopenta[b]quinolin-9-yl](2-phenylethyl)amino]butanoic acid] showed a Ki of 5.1 to 20 nM.

Molecule `O=C(O)CCCN(Cc1ncco1)C1c2ccccc2N(C(=O)c2ccc(OC(F)(F)F)cc2)C2CCCC12` (racemic) [compound 127, 4-[[cis,cis-2,3,3a,4,9,9a-hexahydro-4-[4-(trifluoromethoxy)benzoyl]-1H-cyclopenta[b]quinolin-9-yl](2-oxazolylmethyl)amino] butanoic acid] displayed a Ki of 20.1 to 200 nM.

As for `O=C(O)CCCN(CCCC(=O)O)C1c2ccccc2N(C(=O)c2ccc(OC(F)(F)F)cc2)C2CCCC12` (racemic) [compound 128, 4,4′-[[cis,cis-2,3,3a,4,9,9a-hexahydro-4-[4-(trifluoromethoxy)benzoyl]-1H-cyclopenta[b]quinolin-9-yl]imino]bisbutanoic acid], the Ki lay in the range of 201 to 7500 nM.

The molecule `O=C(O)CCCN(c1ccccc1)[C@@H]1c2ccccc2N(C(=O)c2ccc(OC(F)(F)F)cc2)[C@@H]2CCC[C@H]12` (racemic) [compound 129, 4-[[cis,cis-2,3,3a,4,9,9a-hexahydro-4-[4-(trifluoromethoxy)benzoyl]-1H-cyclopenta[b]quinolin-9-yl]phenylamino]butanoic acid] returned a Ki of 20.1 to 200 nM.
